Reference: US20260263442A1, “METHOD FOR TREATING L-DOPA-INDUCED DYSKINESIA USING BEFIRADOL” (Neurolixis, Inc., priority 2023, published 2026)

System: patients with moderate to severe L-DOPA-induced dyskinesia (LID) in Parkinson's disease
Assay: Adverse events, Phase 2a study of NLX-112 versus placebo

Cc1ccc(CNCC2(F)CCN(C(=O)c3ccc(F)c(Cl)c3)CC2)nc1 [NLX-112]
AE causality: Possibly Related, subjects n (%) (steady state, N = 15): 5 (33) n (%)
AE causality: Probably Related, events m (steady state, N = 15): 1
AE causality: Probably Related, subjects n (%) (steady state, N = 15): 1 (6.7) n (%)
AE causality: Unlikely Related, events m (steady state, N = 15): 3
AE causality: Unlikely Related, subjects n (%) (steady state, N = 15): 3 (20) n (%)
AE severity: Death, events m (steady state, N = 15): 0
AE severity: Death, subjects n (%) (steady state, N = 15): 0 n (%)
AE severity: Life-Threatening, events m (steady state, N = 15): 0
AE severity: Life-Threatening, subjects n (%) (steady state, N = 15): 0 n (%)
AE severity: Mild, events m (steady state, N = 15): 5
AE severity: Mild, subjects n (%) (steady state, N = 15): 4 (27) n (%)
AE severity: Moderate, events m (steady state, N = 15): 6
AE severity: Moderate, subjects n (%) (steady state, N = 15): 4 (27) n (%)
AE severity: Severe, events m (steady state, N = 15): 0
AE severity: Severe, subjects n (%) (steady state, N = 15): 0 n (%)
Any AE leading to WFS, events m (steady state, N = 15): 0
Any AE leading to WFS, subjects n (%) (steady state, N = 15): 0 n (%)
Any AE leading to death, events m (steady state, N = 15): 0
Any AE leading to death, subjects n (%) (steady state, N = 15): 0 n (%)
Any AE, events m (steady state, N = 15): 11
Any AE, subjects n (%) (steady state, N = 15): 8 (53) n (%)
Any SAE, events m (steady state, N = 15): 0
Any SAE, subjects n (%) (steady state, N = 15): 0 n (%)
SAE: CA or BD, events m (steady state, N = 15): 0
SAE: CA or BD, subjects n (%) (steady state, N = 15): 0 n (%)
SAE: ILT, events m (steady state, N = 15): 0
SAE: ILT, subjects n (%) (steady state, N = 15): 0 n (%)
SAE: OMISE, events m (steady state, N = 15): 0
SAE: OMISE, subjects n (%) (steady state, N = 15): 0 n (%)
SAE: PSD/I, events m (steady state, N = 15): 0
SAE: PSD/I, subjects n (%) (steady state, N = 15): 0 n (%)
SAE: RPH, events m (steady state, N = 15): 0
SAE: RPH, subjects n (%) (steady state, N = 15): 0 n (%)
Overall safety and tolerability (up to 2 mg/day, 8 weeks, PD patients with LID): safe and well tolerated
AE action: Dose Not Changed, events m (up-titration, N = 18): 30
AE action: Dose Not Changed, subjects n (%) (up-titration, N = 18): 10 (56) n (%)
AE action: Dose Reduced, events m (up-titration, N = 18): 13
AE action: Dose Reduced, subjects n (%) (up-titration, N = 18): 3 (17) n (%)
AE action: Drug Interrupted, events m (up-titration, N = 18): 0
AE action: Drug Interrupted, subjects n (%) (up-titration, N = 18): 0 n (%)
AE action: Not Applicable, events m (up-titration, N = 18): 9
AE action: Not Applicable, subjects n (%) (up-titration, N = 18): 5 (28) n (%)
AE causality: Possibly Related, events m (up-titration, N = 18): 33
AE causality: Possibly Related, subjects n (%) (up-titration, N = 18): 11 (61) n (%)
AE causality: Probably Related, events m (up-titration, N = 18): 2
AE causality: Probably Related, subjects n (%) (up-titration, N = 18): 2 (11) n (%)
AE causality: Unlikely Related, events m (up-titration, N = 18): 17
AE causality: Unlikely Related, subjects n (%) (up-titration, N = 18): 10 (56) n (%)
AE severity: Death, events m (up-titration, N = 18): 0
AE severity: Death, subjects n (%) (up-titration, N = 18): 0 n (%)
AE severity: Life-Threatening, events m (up-titration, N = 18): 0
AE severity: Life-Threatening, subjects n (%) (up-titration, N = 18): 0 n (%)
AE severity: Mild, events m (up-titration, N = 18): 35
AE severity: Mild, subjects n (%) (up-titration, N = 18): 11 (61) n (%)
AE severity: Moderate, events m (up-titration, N = 18): 17
AE severity: Moderate, subjects n (%) (up-titration, N = 18): 7 (39) n (%)
AE severity: Severe, events m (up-titration, N = 18): 0
AE severity: Severe, subjects n (%) (up-titration, N = 18): 0 n (%)
Any AE leading to WFS, events m (up-titration, N = 18): 3
Any AE leading to WFS, subjects n (%) (up-titration, N = 18): 1 (5.6) n (%)
Any AE leading to death, events m (up-titration, N = 18): 0
Any AE leading to death, subjects n (%) (up-titration, N = 18): 0 n (%)
Any AE, events m (up-titration, N = 18): 52
Any AE, subjects n (%) (up-titration, N = 18): 14 (78) n (%)
Any SAE, events m (up-titration, N = 18): 0
Any SAE, subjects n (%) (up-titration, N = 18): 0 n (%)
Back pain, events m (up-titration, N = 18): 1
Back pain, subjects n (%) (up-titration, N = 18): 1 (5.6) n (%)
Dissociation, events m (up-titration, N = 18): 1
Dissociation, subjects n (%) (up-titration, N = 18): 1 (5.6) n (%)
Dizziness, events m (up-titration, N = 18): 2
Dizziness, subjects n (%) (up-titration, N = 18): 2 (11) n (%)
Dyskinesia, events m (up-titration, N = 18): 2
Dyskinesia, subjects n (%) (up-titration, N = 18): 2 (11) n (%)
Fall, events m (up-titration, N = 18): 2
Fall, subjects n (%) (up-titration, N = 18): 1 (5.6) n (%)
Fatigue, events m (up-titration, N = 18): 1
Fatigue, subjects n (%) (up-titration, N = 18): 1 (5.6) n (%)
Headache, events m (up-titration, N = 18): 2
Headache, subjects n (%) (up-titration, N = 18): 2 (11) n (%)
Insomnia, events m (up-titration, N = 18): 1
Insomnia, subjects n (%) (up-titration, N = 18): 1 (5.6) n (%)
Nausea, events m (up-titration, N = 18): 2
Nausea, subjects n (%) (up-titration, N = 18): 2 (11) n (%)
Orthostatic hypotension, events m (up-titration, N = 18): 0
Orthostatic hypotension, subjects n (%) (up-titration, N = 18): 0 n (%)
Parkinsonism, events m (up-titration, N = 18): 3
Parkinsonism, subjects n (%) (up-titration, N = 18): 3 (17) n (%)
Restless legs syndrome, events m (up-titration, N = 18): 1
Restless legs syndrome, subjects n (%) (up-titration, N = 18): 1 (5.6) n (%)
SAE: CA or BD, events m (up-titration, N = 18): 0
SAE: CA or BD, subjects n (%) (up-titration, N = 18): 0 n (%)
SAE: ILT, events m (up-titration, N = 18): 0
SAE: ILT, subjects n (%) (up-titration, N = 18): 0 n (%)
SAE: OMISE, events m (up-titration, N = 18): 0
SAE: OMISE, subjects n (%) (up-titration, N = 18): 0 n (%)
SAE: PSD/I, events m (up-titration, N = 18): 0
SAE: PSD/I, subjects n (%) (up-titration, N = 18): 0 n (%)
SAE: RPH, events m (up-titration, N = 18): 0
SAE: RPH, subjects n (%) (up-titration, N = 18): 0 n (%)
Vertigo, events m (up-titration, N = 18): 2
Vertigo, subjects n (%) (up-titration, N = 18): 2 (11) n (%)
Vomiting, events m (up-titration, N = 18): 2
Vomiting, subjects n (%) (up-titration, N = 18): 2 (11) n (%)
